Experimental data taken from PubChem BioAssay AID1345082 (National Center for Advancing Translational Sciences (NCATS), 2018).
Out of some 94,000 compounds screened, about 4,000 (4.3%) were called active. Inconclusive means that the source gave no clear call. Such entries were picked first, then a sample of the others. Calls come from the whole dose curve; as a rule, active = well fitted inhibition curve with a large enough effect; inconclusive = small, poorly fitted or top-dose-only effect; inactive = no such curve, though single readings can be large or run the other way. Potencies of inconclusive entries are doubtful fits and often do not repeat.
% is set by controls: 0 for no effect and ±100 for the full control effect; potency is the fitted concentration of half-maximal effect; tags give direction and shape of the fitted curve.

Assay: Cytotoxic Profiling in NIH 3T3 Cell Line of Diverse Libraries Using Quantitative High-Throughput Screening; note: nearly all actives have a fitted effect of over 55% in size
Details: NIH 3T3 viability, CellTiter-Glo ATP luminescence, 48-72 h; activity change, negative = cytotoxicity: at 96.7 µM (top of the series) unless noted; series mostly up to 96.7 µM
Outline: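 ATP-dependent luminescence (CellTiter-Glo) served as the viability signal for NIH 3T3 cells treated with compound for 48 or 72 hr at 37 °C.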
For `O=C(O)c1ccc(CN2CCC[C@@H](O)[C@H](NC(=O)c3ccc(OCc4ccccc4)cc3)C2)cc1`, the Potency was inconclusive: 89.1 µM [inhibitor, single point].
For `Cc1ccc(CN2C(=O)COC[C@H]2C(=O)Nc2cc(F)cc(F)c2)cc1`, the Potency was inconclusive: 44.7 µM [inhibitor, partial curve, poor fit].
With `CCn1ncc(CN2CC(F)(F)C[C@H]2c2nc(C(=O)NC)no2)c1C` the “outcome” value was “inactive”.
With `CC(C)C(=O)Nc1ccc(C2(C(=O)N3CCN(c4ccccn4)CC3)CCCCC2)cc1` the Potency was inconclusive: 70.8 µM [inhibitor, single point].
With `C#CCNC[C@@H]1C=C(C)[C@H](Cc2nnc(Cc3c[nH]c4ccccc34)o2)C[C@H]1C(C)C` the Potency was inconclusive: 56.2 µM [inhibitor, partial curve, poor fit].
With `Cc1nn(CCC#N)c(C)c1[C@@H]1C=C[C@@H](NCc2ccc(C(C)C)cc2)C1` the Potency was inconclusive: 100 µM [inhibitor, partial curve, poor fit].
For `Cc1ccnc(N2CCN(C3CCC4(CCNCC4)CC3)CC2)c1`, the Potency was inconclusive: 50.1 µM [inhibitor, partial curve, poor fit].
In the case of `O=[S+]([O-])(c1ccccc1)N1CCC2(CC1)CC(c1cccc(C(F)(F)F)c1)=NO2`, the Potency is reported as inconclusive: 56.2 µM [inhibitor, partial curve, poor fit].
For `N#Cc1cccc(CN2CC[C@@H]3OCC(=O)N(Cc4c[nH]c5ccccc45)[C@H]3CC2)c1`, the Potency was inconclusive: 50.1 µM [inhibitor, partial curve, poor fit].
For `O=C(c1ccoc1)N1CCCn2cc(-c3ccccc3)nc21`, the “activity change, negative = cytotoxicity” value was inactive: 3.33%.
In the case of `O=C(NC1CC1)c1ccccc1OC1CN(Cc2ccncc2)C1`, the “activity change, negative = cytotoxicity” value is reported as inactive: 1.7%.
With `Cc1noc(-c2ccc(OC3CN(C(=O)NCc4ccccc4)C3)cc2)n1` the Potency was inconclusive: 31.6 µM [inhibitor, partial curve].
With `O=C(NCc1cccc(C(F)(F)F)c1)c1nc2sccn2c1-c1ccncc1` the Potency was inconclusive: 44.7 µM [inhibitor, partial curve, poor fit].
With `CC(=O)NC1(C)CCN(Cc2ccc(-c3ccccc3OCc3ccccc3)cc2)C1` (configuration not stated) the Potency was active: 31.6 µM.
For `O=C(CC1CCCCN(Cc2ccccc2)C1=O)NC1CCCCC1` (configuration not stated), the Potency was inconclusive: 31.6 µM [inhibitor, partial curve].
With `COCCC(=O)NC[C@@H]1C=C(C)[C@H](CC(=O)N(C)Cc2cccnc2)C[C@H]1C(C)C` the “activity change, negative = cytotoxicity” value was inactive: -0.476% [at 174 µM].
With `CNC(=O)c1noc([C@@H]2CC(F)(F)CN2C(=O)CCC2CCCC2)n1` the “outcome” value was “inactive”.
With `COc1ccc(Nc2cnc3ccc(-c4ccccc4)nn23)cc1` the Potency was inconclusive: 35.5 µM [inhibitor, partial curve, poor fit].
With `COc1ccc(Cn2cc(-c3ccc(F)c(C(N)=O)c3)cn2)cc1` the Potency was inconclusive: 56.2 µM [inhibitor, partial curve, poor fit].
In the case of `CC(C)CN1C(=O)c2ccccc2C(C(=O)Nc2ccc(C(N)=O)cc2)C12CCCC2` (configuration not stated), the Potency is reported as inconclusive: 79.4 µM [inhibitor, partial curve, poor fit].
With `COc1ccc(-c2cc(N3CCCN(C(=O)CC4CCCCC4)CC3)n[nH]2)cc1` the Potency was inconclusive: 50.1 µM [inhibitor, partial curve, poor fit].
In the case of `CN1C[C@@H](NC(=O)NC2CCCCC2)C[C@H]1c1nc(Cc2ccccc2)no1`, the Potency is reported as inconclusive: 50.1 µM [inhibitor, full curve, poor fit].
With `CCn1nccc1C(=O)N1CC(Oc2ccc(-c3nc(C)no3)cc2)C1` the Potency was inconclusive: 39.8 µM [inhibitor, partial curve].
In the case of `COc1ccc(-c2ccc3nc(-c4ccc(F)c(F)c4)oc3c2)c(OC)c1OC`, the Potency is reported as inconclusive: 44.7 µM [inhibitor, partial curve, poor fit].
In the case of `CN(Cc1cccn1C)C(=O)NC1CCCC1`, the Potency is reported as inconclusive: 79.4 µM [inhibitor, partial curve, poor fit].
In the case of `O=c1n(-c2cccc(Cl)c2)nc2n1CCN([S+](=O)([O-])c1cccs1)C2`, the “activity change, negative = cytotoxicity” value is reported as inactive: -12.9%.
In the case of `COc1cccc(C(=O)N[C@H]2[C@H](O)[C@H](O)C[C@@H]2c2ccc(C(F)(F)F)nc2)c1`, the “activity change, negative = cytotoxicity” value is reported as inactive: -10.5% [at 174 µM].
For `Cc1cccc(CC(=O)N2CCN(c3cc(-c4cccs4)[nH]n3)CC2)c1`, the Potency was inconclusive: 28.2 µM [inhibitor, full curve, poor fit].
With `COc1ccc(-c2cc(C[C@H]3CNCC[C@H]3CC(=O)N3CCN(c4ccccc4OC)CC3)no2)cc1` the Potency was active: 14.1 µM.
In the case of `O=C1N(CC2CCC2)CCCC12CCN(Cc1ccc(-c3ccn[nH]3)s1)C2` (configuration not stated), the “activity change, negative = cytotoxicity” value is reported as inactive: -34.9%.
With `CCOc1cc(=O)n2c(c1C(=O)Nc1ccc(S(N)(=O)=O)cc1)CCCC2` the “activity change, negative = cytotoxicity” value was inactive: 1.59%.
For `O=C(C1CCCN1C(=O)c1ccccc1F)N1CCC(c2ccccc2)CC1` (configuration not stated), the Potency was inconclusive: 70.8 µM [inhibitor, partial curve, poor fit].
With `COc1ccc(NC(=O)[C@@H]2C[C@H](c3ccc(F)cc3)N(Cc3csc(C)n3)C2)cn1` the Potency was inconclusive: 89.1 µM [inhibitor, partial curve].
For `COc1ccc(-c2cc3c(=O)n(CCNC(=O)Cc4cccs4)ccn3n2)cc1`, the Potency was inconclusive: 50.1 µM [inhibitor, partial curve, poor fit].
With `CCc1nnc([C@@H]2CC(F)(F)CN2C(=O)c2noc(C)c2COC)o1` the “outcome” value was “inactive”.
In the case of `O=C(NC1CCCCC1)N1CCCCCC1CN1CCCC1` (configuration not stated), the “activity change, negative = cytotoxicity” value is reported as inactive: -15%.
For `O=C(c1ccc(F)cc1)N1CCN(c2ccc3nnc(-c4ccccc4)n3n2)CC1`, the Potency was inconclusive: 44.7 µM [inhibitor, partial curve, poor fit].
With `O=C(N[C@@H](Cn1cc(Cl)c(=O)[nH]c1=O)C(=O)O)C1CCC1` the “activity change, negative = cytotoxicity” value was inactive: -20.2% [at 174 µM].
For `CN(Cc1ccc(-c2ccccc2)cc1)Cc1cccnc1`, the Potency was inconclusive: 28.2 µM [inhibitor, partial curve, poor fit].
In the case of `Cn1cccc1CN1CCCC2(CC(c3cccc(C(F)(F)F)c3)=NO2)C1` (configuration not stated), the Potency is reported as inconclusive: 44.7 µM [inhibitor, partial curve, poor fit].
In the case of `O=C(NCc1cccc(F)c1)c1nc2cccnc2n(Cc2ccccc2)c1=O`, the Potency is reported as inconclusive: 44.7 µM [inhibitor, partial curve, poor fit].
For `Cn1nc(C(=O)NCC23CCCC=C2NC(=O)CC3)c2ccccc21` (configuration not stated), the “activity change, negative = cytotoxicity” value was inactive: -18.8%.
With `Cc1cccc(-c2nc3ccc(C(=O)NCc4ccccc4)cc3o2)n1` the Potency was inconclusive: 44.7 µM [inhibitor, partial curve, poor fit].
For `COC(=O)[C@@H]1Cc2c([nH]c3ccccc23)[C@H]2C[C@@H](NCc3cccs3)C[C@@H](c3ccc(F)cc3)N21`, the Potency was active: 79.4 µM.
In the case of `O=c1n(-c2ccc([N+](=O)[O-])cc2)nc2n1CCN(CC1CC1)C2`, the Potency is reported as inconclusive: 70.8 µM [inhibitor, partial curve, poor fit].
For `COC1C(=O)N(c2cccc(F)c2)C12CCN(C(=O)c1cc3ccccc3[nH]1)CC2` (configuration not stated), the Potency was inconclusive: 44.7 µM [inhibitor, partial curve, poor fit].
With `CN1CCC(NC(=O)C2CCCN(S(=O)(=O)c3ccccc3)CCC(=O)NCC2)CC1` (configuration not stated) the “activity change, negative = cytotoxicity” value was inactive: -2.66%.
With `Cn1nccc1CN1CCn2c(nnc2-c2ccc(Cl)cc2)C1` the Potency was inconclusive: 56.2 µM [inhibitor, partial curve, poor fit].
In the case of `Cc1ccsc1CN1CCC2(CC1)CC(CC(=O)NCc1ccncc1)CCO2` (configuration not stated), the “activity change, negative = cytotoxicity” value is reported as inactive: -9.1%.
For `O=c1c2c(n(Cc3cccnc3)n1-c1ccccc1)CN(CC1CC1)CC2`, the Potency was active: 28.2 µM.
For `O=C1CC(c2noc(Cc3c(F)cccc3Cl)n2)CN1C1CCCCC1` (configuration not stated), the Potency was inconclusive: 70.8 µM [inhibitor, partial curve, poor fit].
In the case of `CC1(c2ccccc2)N(Cc2cccnc2)C(=O)OC12CCN(C(=O)Cc1ccccc1)CC2` (configuration not stated), the Potency is reported as inconclusive: 11.2 µM [inhibitor, full curve, poor fit].
In the case of `COc1ccc(OCC(O)CN2CCC(=O)N(Cc3ccccc3)Cc3cc(OC)ccc32)cc1` (configuration not stated), the Potency is reported as inconclusive: 50.1 µM [inhibitor, partial curve, poor fit].
For `CN(C(=O)CN1C(=O)C(c2ccccc2)=NC12CCCCC2)c1ccccc1`, the “activity change, negative = cytotoxicity” value was inactive: -7.83%.
For `O=C(Cc1cccc(Cl)c1)NC1CCC(Cc2cccc(-c3cccs3)c2)CC1` (configuration not stated), the “activity change, negative = cytotoxicity” value was inactive: -29%.
For `CO[C@H]1C(=O)N(C2CCN(C(=O)c3cc4ccccc4[nH]3)CC2)[C@H]1c1ccncc1`, the Potency was inconclusive: 50.1 µM [inhibitor, partial curve, poor fit].
With `COc1ccc(CCNC(=O)C2CCCCN2Cc2ccc(-c3cccs3)cc2)cc1` (configuration not stated) the Potency was inconclusive: 50.1 µM [inhibitor, partial curve, poor fit].
In the case of `COCC(=O)N1CCN(Cc2ccccc2-c2ccc(C)c(Cl)c2)CC1`, the Potency is reported as inconclusive: 50.1 µM [inhibitor, partial curve, poor fit].
For `COc1cccc(-c2cc3c(ccn3Cc3cccnc3)c(C3=CCOCC3)n2)c1OC`, the Potency was active: 70.8 µM.
With `CC(=O)Nc1cccc(-c2ccc3c(n2)CN(Cc2ccccc2C)C(=O)CO3)c1` the Potency was inconclusive: 50.1 µM [inhibitor, partial curve, poor fit].
With `CN1c2cc(C(=O)Nc3cccc(F)c3)ccc2C(=O)N2CCCCCC21` (configuration not stated) the Potency was inconclusive: 50.1 µM [inhibitor, partial curve, poor fit].
For `Cc1noc(-c2cccc(F)c2)c1C(=O)NCCSCc1ccccc1`, the Potency was inconclusive: 50.1 µM [inhibitor, partial curve, poor fit].
